Source: ChEMBL document CHEMBL4888484, “Replenishing the malaria drug discovery pipeline: Screening and hit evaluation of the MMV Hit Generation Library 1 (HGL1) against asexual blood stage Plasmodium falciparum ,using a nano luciferase reporter read-out” (2022)
Where “and” joins values, the source holds several entries; their conditions need not be identical. Equal values may be shown once. Out of some 150,000 compounds screened, about 540 (0.36%) showed an effect of 50% or more. Some of the results follow.

Tested on: Plasmodium falciparum
Test: Primary screen in NF54 nanoGlo assay, in single point, at 2uM, 72h; a lower Z score goes with more inhibition
Type: functional, Erythrocyte
Settings: timepoint 72 hour

Compound | % Inhibition [%] | Z score | % Inhibition (2 µM)
Cc1cc(C(F)(F)F)c2c(C(N)=O)cn(C(C)(C)C)c2n1 | 35 | -1.1 | 
CC(C)c1noc(N2CCC[C@H]2c2cccnc2)n1 | -1 | 0.19 | 
Cc1oc2nc(CN3CCOC4(CCOCC4)C3)nc(N)c2c1C | -2 | 0.27 | 
Cc1cc(C)n(C[C@H](C)N(C)CCc2scnc2C)n1 | -3 | 0.54 | 
Cc1noc([C@@H]2CN(C(=O)COc3ccc(F)cc3)CCCN2CC(C)C)n1 | -7 | 1.39 | 
CN1CC[C@H](CNS(=O)(=O)c2ccc3[nH]c(=O)oc3c2)CC1=O | -10 | 1.13 | 
Cc1nn(C(C)(C)C)c(C)c1C(=O)Oc1ccc2c(c1)OCO2 | -4 | 0.74 | 
C[C@H]1CCN(C(=O)Cc2ccc(N)cc2)CCN1Cc1ccccc1 | -6 | 0.58 | 
CCC1CN2CCCC2CN1Cc1ccc(OC)nn1 (stereo not given) | -4 | 0.61 | 
CC(Cc1ccc(O)cc1)N(C)C[C@@H](O)c1ccccc1 (stereo not given in full) | -20 | 2.6 | 
Cc1ccccc1Nc1nnc(CC(=O)N2CCN(Cc3ccccc3)CC2)s1 | -6 | 0.64 | 
CC(Cc1ccno1)NCC(C)(O)C(=O)OC(C)(C)C (stereo not given) | 16 | -2.05 | 
C[C@@H](Cc1ccccc1F)NCc1nnc2ccccn12 | -5 | 1.01 | 
O=C(C1CC1c1cccc2ccccc12)N1CCC2(CC1)OCCO2 (stereo not given) | 3 | -0.31 | 
CC(C)N1C2CCC1CN(c1ccc3nccnc3n1)CC2 (stereo not given) | -11 | 1.65 | 
Cc1ccc(N2C[C@@H](c3nc(-c4ccc5c(c4)oc(=O)n5C(C)C)no3)CC2=O)cc1 | -7 | 0.65 | 
c1ccc(CCN(Cc2ccccc2)Cc2cccnc2)cc1 | -10 | 1.38 | 
COC1(Cc2nc([C@@H]3CN4CCN3CC4)no2)CCC1 | -4 | 0.74 | 
CCC1CN(CC=C(C)C)CC2(CCOC2)O1 (stereo not given) | 1 | -0.1 | 
Oc1ccc([C@H]2N(n3cnnc3)C2(Cl)Cl)c(O)c1 | 12 | -1.55 | 
CCC(=O)N1CCC(N2C[C@H](OC)[C@@H]2c2cccnc2)CC1 | -12 | 1.39 | 
CC(C)c1noc(N2C[C@@H]3OCCN(C)[C@@H]3C2)n1 | -7 | 1.42 | 
Cc1ccccc1-n1c(O)c(Cc2c(Cl)cccc2Cl)c(O)nc1=O |  |  | -9% and -4% and 1%
Cc1c(C)[n+]([O-])c([C@@H](c2cccc(O)c2)C2C(=O)N(C)C(=O)N(C)C2=O)n1Cc1ccccc1 | -7 | 0.83 | 
O=C(Nc1ccc2n(c1=O)C[C@H]1C[C@@H]2CN(Cc2ccc(F)cc2)C1)c1ccncc1 | 13 | -1.62 | 
Cn1c(=O)n(CC(=O)N2CCC[C@H](c3n[nH]c(=O)o3)C2)c2ccccc21 | -10 | 1.12 | 
COc1ccc(C(=O)N(c2cc(C)cc(C)c2)C2(C(=O)NCc3ccccc3)CCN(C(C)=O)CC2)cc1 | -11 | 1.55 | 

Compound | % Inhibition [%] | Z score | % Inhibition (2 µM)
O[C@H]1COCCN(Cc2cccnc2)C1 | -8 | 1.3 | 
C[C@@H](Cn1cnc2c(cnn2C)c1=O)NCc1ccccc1 | -2 | 0.38 | 
CC(C)(C)c1nn(Cc2nc(-c3cccs3)no2)c(=O)o1 | 10 | -2 | 
Cc1nc(N)sc1CC(=O)N1CCN(CCCCO)CC1 | -6 | 0.75 | 
O=C(NCc1ccc(CO)c(F)c1)N1CCC(Nc2ccccc2F)CC1 | -12 | 1.53 | 
CCN1CC[C@@]2(CCC1=O)CN(C(=O)Cc1ccsc1)CCN2C | -17 | 1.68 | 
CCCc1nc(CN[C@@H](C)Cn2cc(C)cn2)no1 | -4 | 0.54 | 
COc1ccc(Cl)cc1NCC(=O)N1CCC2(CC1)OCCO2 | -14 | 2.71 | 
CC(=O)N[C@H]1C[C@H]2CN(Cc3cccnc3)[C@@H](C)C(=O)N2C1 | -21 | 1.81 | 
COc1ccc(-c2cn(C[C@H]3C[C@@H]4CCN3C[C@@H]4C(=O)NCc3ccccc3)nn2)cc1 | 32 | -3.59 | 
Cc1noc(C)c1C(=O)N1C2CCC1c1cncnc1C2 (stereo not given) | -5 | 0.68 | 
CC(C)NC(=O)N1C[C@@H]2C[C@H](C1)c1c(-c3cncnc3)ccc(=O)n1C2 | 31 | -3.45 | 
C[C@]1(c2ccccc2Cl)NC(=O)N(CC(=O)Nc2ccc(Cl)cc2C(=O)c2ccccc2)C1=O | -1 | 0.1 | 
COc1cccc([C@H]2CN(C(=O)c3cccnc3C)[C@@H]3C4CCN(CC4)[C@H]23)c1 | -9 | 1.67 | 
Cn1ncc2c(=O)[nH]c(CN3CCC4CCCCC43)nc21 (stereo not given) | -2 | 0.29 | 
CN1[C@@H]2CCC[C@H]1c1c(nc(N)c(C#N)c1-c1cccc(OCCO)c1)C2 | -15 | 2.26 | 
Cn1nc(C2CCCCC2)cc1NC(=O)CC1CC2CCC(C1)N2 (stereo not given) | -7 | 0.67 | 
C=CCNC(=O)c1c(COc2ccc(C)cc2)n(Cc2ccccn2)c(C)cc1=O | 12 | -1.71 | 
C[C@H](NC(=O)c1cccc2oc(=O)[nH]c12)C1(S(C)(=O)=O)CC1 | 8 | -1.06 | 
Cc1nc(-c2ccccc2)nc2c1CC(=O)N2CCN1CCCCC1 | -13 | 1.88 | 
OCC(CO)N1CC[C@@H]2OCc3cnnn3[C@H]2C1 | -8 | 1.24 | 
O=C(COc1ccc(Cl)cc1)N1CCCN(C2CCC2)CC1 | -24 | 4.15 | 
O=C(c1cnccn1)N1C[C@@H](c2cccc(F)c2F)[C@@H]2[C@H]1C1CCN2CC1 | -13 | 2.42 | 
COc1ccc(C)cc1C[C@H]1CCCN1 | -38 | 4.48 | 
Cc1ccc(OCc2c(C(=O)NC[C@H]3C[C@@H]4C=C[C@H]3C4)c(=O)cc(C)n2CCN2CCOCC2)cc1 | -9 | 1.11 | 
CC(C)CN(CC(C)C)S(=O)(=O)N1CCC(C(=O)N2CCC3(CC2)OCCO3)CC1 | -13 | 2.2 | 
